SMILES strings stand for the structures. Some results are limits rather than exact numbers.

This note sets out measurements from patent publication US6649595B2, “Regulation of biological events using novel compounds” (ARIAD Gene Therapeutics, Inc., priority 1995, dated 2003).

In test [1] the test system is stably transfected HT1080 clone (SEAP target gene, ZFHD1-3FKBP, 1FRB-p65). To be noted: 100 nM rapamycin; SEAP assay length increased about 50-fold.
Test [2] concerns HT1080 cells transfected with ZFHD1-3FKBP, 1FRB-p65 and SEAP reporter gene. Kind of test: Rapamycin-dependent SEAP transcriptional activation in transiently transfected cells. Type of test: cell-based, human. To be noted: transient transfection. The source says: See WO 96/41865, FIG. 4A.
Background SEAP activity, measured from mock-transfected cells, was subtracted from each value.

For the compound `CO[C@H]1C[C@@H]2CC[C@@H](C)[C@@](O)(O2)C(=O)C(=O)N2CCCC[C@H]2C(=O)O[C@H]([C@H](C)C[C@@H]2CC[C@@H](O)[C@H](OC)C2)CC(=O)[C@H](C)/C=C(\C)[C@@H](O)[C@@H](OC)C(=O)[C@H](C)C[C@H](C)/C=C/C=C/C=C/1C` [rapamycin, Rapamycin], the SEAP production result in test [1] is recorded as “over 90,000 arbitrary fluorescence units”. In test [2], the “enhancement of SEAP over background levels in the absence of rapamycin” value is at least 1000 fold.
